Assay results as given in the RNAGym collection of RNA variant scans (doi:10.7554/elife.90254).
Read counts are not given, so values of variants with three or more changes are uncertain.

B1: LINE1-full (parent)
chain: UACGUAGGUGGUUUUCCCCUGAUAGUGCUAAGGGGGCCUGGAAGUUUGGACUGGGCAGAGCUCAACACAGCGUGGCAAAGUGGCUGUGGCUAGACUGCCUCUCUGGAUUCCUCGUCACUCAGCAGGGCAUCUCUGAGAGAAAUGCC

Variants of: B1
Assay: self-cleavage, relative activity (ratio to wild type); higher = more cleavage; in vitro, sequencing; the parent is a self-cleaving ribozyme

Variant | self-cleavage
UACGUAGGUGGCUUUCCCCUGAUAGUGCUAAGGGGGCCUGGAAGUUUGGACUGGGCAGAGCUCAACACAGCGUGGCAAAGUGGCUGUGGCUAGACGGCCUCUCUGGAUUCCUCGUCACUCCGCUGGGCAUCUCUGAGAGAAAUGCC [U12C U96G A121C A124U] | 0.17
UACGUAGGUGGCUUUCCCCUGAUAGUGCUAAGGGGGCCUGGAAGUUUGGACUGGGCAGAGCUCAACACAGCGUGGCAAAGUGGCUGUGGCUAGACUGCCACUCUGGAUUCCUCGUCACGCAGCAGGGCAUCUCUGAGAGAAAUGCC [U12C U100A U119G] | 1.25
UACGUAGGUGGCUUUCCCCUGAUAGUGCUAAGGGGGCCUGGAAGUUUGGACUGGGCAGAGCUCAACACAGCGUGGCAAAGUGGCUGUGGCUAGACUGCCACUCUGGAUUCCUCGUCACUCAGCAGGGCAUCGCUGAGAGAAAUGCC [U12C U100A U132G] | 1.63
UACGUAGGUGGCUUUCCCCUGAUAGUGCUAAGGGGGCCUGGAAGUUUGGACUGGGCAGAGCUCAACACAGCGUGGCAAAGUGGCUGUGGCUAGACUGCCCCUCUGGAUUCCUCGUCACUCAGCAGGGCAUCUCUGAGAGAGAUGCC [U12C U100C A141G] | 0.6
UACGUAGGUGGCUUUCCCCUGAUAGUGCUAAGGGGGCCUGGAAGUUUGGACUGGGCAGAGCUCAACACAGCGUGGCAAAGUGGCUGUGGCUAGACUGCCCCUCUGGAUUCCUCGUCACUCAGCAGGGCAUCUCUGAGAGAAGUGCC [U12C U100C A142G] | 2.53
UACGUAGGUGGCUUUCCCCUGAUAGUGCUAAGGGGGCCUGGAAGUUUGGACUGGGCAGAGCUCAACACAGCGUGGCAAAGUGGCUGUGGCUAGACUGCCCCUCAGGAUUCCUCGUCACUCAGCAGGGCAUCUCUGAGAGAAAUGCC [U12C U100C U104A] | 2.08
UACGUAGGUGGCUUUCCCCUGAUAGUGCUAAGGGGGCCUGGAAGUUUGGACUGGGCAGAGCUCAACACAGCGUGGCAAAGUGGCUGUGGCUAGACUGCCUCCCUGGAUUCCUCGUUACUCAGCAGGGCAUCUCUGAGAGAAAUGCC [U12C U102C C116U] | 2.03
UACGUAGGUGGCUUUCCCCUGAUAGUGCUAAGGGGGCCUGGAAGUUUGGACUGGGCAGAGCUCAACACAGCGUGGCAAAGUGGCUGUGGCUAGACUGCCUCUCAGGAUUCCUCGUCACUCAGCAGGGCAUCCCUGAGAGAAAUGCC [U12C U104A U132C] | 0.36
UACGUAGGUGGCUUUCCCCUGAUAGUGCUAAGGGGGCCUGGAAGUUUGGACUGGGCAGAGCUCAACACAGCGUGGCAAAGUGGCUGUGGCUAGACUGCCUCUCUGGACUCCUCGUCACUCAGCAGGGCACCUCUGAGAGAAAUGCC [U12C U108C U130C] | 0
UACGUAGGUGGCUUUCCCCUGAUAGUGCUAAGGGGGCCUGGAAGUUUGGACUGGGCAGAGCUCAACACAGCGUGGCAAAGUGGCUGUGGCUAGACUGCCUCUCUGGAUCCCCCGUCACUCAGCAGGGCAUCUCUGAGAGAAAUGCC [U12C U109C U112C] | 0.97
UACGUAGGUGGCUUUCCCCUGAUAGUGCUAAGGGGGCCUGGAAGUUUGGACUGGGCAGAGCUCAACACAGCGUGGCAAAGUGGCUGUGGCUAGACUGCCUCUCUGGAUUCCCCGUCACUCAGCAGGGAAUCUCUGAGAGAAAUGCC [U12C U112C C128A] | 1.25
UACGUAGGUGGCUUUCCCCUGAUAGUGCUAAGGGGGCCUGGAAGUUUGGACUGGGCAGAGCUCAACACAGCGUGGCAAAGUGGCUGUGGCUAGACUGCCUCUCUGGAUUCCCCGUCACCCAGCAGGGCAUCUCUGAGAGAAAUGCC [U12C U112C U119C] | 0
UACGUAGGUGGCUUUCCCCUGAUAGUGCUAAGGGGGCCUGGAAGUUUGGACUGGGCAGAGCUCAACACAGCGUGGCAAAGUGGCUGUGGCUAGACUGCCUCUCUGGAUUCCUCGCCGCUCAGCAGGGCAUCUCUGAGAGAAAUGCC [U12C U115C A117G] | 1.84
UACGUAGGUGGCUUUCCCCUGAUAGUGCUAAGGGGGCCUGGAAGUUUGGACUGGGCAGAGCUCAACACAGCGUGGCAAAGUGGCUGUGGCUAGACUGCCUCUCUGGAUUCCUCGCCACUCAGCAGGGCAUCUCUGAGUGAAAUGCC [U12C U115C A138U] | 2.04
UACGUAGGUGGCUUUCCCCUGAUAGUGCUAAGGGGGCCUGGAAGUUUGGACUGGGCAGAGCUCAACACAGCGUGGCAAAGUGGCUGUGGCUAGACUGCCUCUCUGGAUUCCUCGUCACUCAGCAGGGCACCUCUGAGAGGAAUGCC [U12C U130C A140G] | 1.45
UACGUAGGUGGCUUUCCCCUGAUAGUGCUAAGGGGGCCUGGAAGUUUGGACUGGGCAGAGCUCAACACAGCGUGGCAAAGUGGCUGUGGCUAGACUGCCUCUCUGGAUUCCUCGUCACUCAGCAGGGCACCUCAGAGAGAAAUGCC [U12C U130C U134A] | 1.28
UACGUAGGUGGCUUUCCCCUGAUAGUGCUAAGGGGGCCUGGAAGUUUGGACUGGGCAGAGCUCAACACAGCGUGGCAAAGUGGCUGUGGCUAGACUGCCUCUCUGGAUUCCUCGUCACUCAGCAGGGCACCUCCGAGAGAAAUGCC [U12C U130C U134C] | 1.84
UACGUAGGUGGGUUUCCCCUGGUAGUGCUAAGGGGGCCUGGAAGUUUGGACUGGGCAGGGCUCAACACAGCGUGGCAAAGUGGCUGUGGCUAGACUGCCUCUCUGGAUUCCUCGUCACCCAGCAGGGCAUCUCUGAGAGAAAUGCC [U12G A22G A59G U119C] | 0
UACGUAGGUGGGUUUCCCCUGGUAGUGCUAAGGGGGCCUGGAAGUUUGGACUGGGCAGUGCUCGACACAGCGUGGCAAAGUGGCUGUGGCUAGACUGCCUCUCUGGAUUCCUCGUCACUCAGCAGGGCAUCUCUGAGAGAAGUGCC [U12G A22G A59U A64G A142G] | 1.34
UACGUAGGUGGGUUUCCCCUGGUAGUGCUAAGGGGGCCUGGAAGUUUGGACUGAGCAGAGCUCAACACAGCGUGGCAAAGUGGCUGUGGCUAGACUGCCUCUCUGGAUUCCUCGUCACUCAGCAGGGCAUCUCUGAGAGAAAUGCC [U12G A22G G54A] | 0.25

Variant | self-cleavage
UACGUAGGUGGGUUUCCCCUGGUAGUGCUAAGGGGGCCUGGAAGUUUGGACUGGGCAGAGCUCAACACAGCGUGGCAAAGUGGCUGUGGCUAGACUGCCUCUCUUGAUUCCUCGUCACUCAGCAGGGCUUCUCUGAGAGAAAUGCC [U12G A22G G105U A129U] | 1.46
UACGUAGGUGGGUUUCCCCUGGUAGUGCCAAGGGGGCCUGGAAGUUUGGACUGGGCAGAGCUCAACACAGCGUGGCAAAGUGGCUGUGGCUAGACUGCCUCUCUGGAUUCCUCGUCACUCAGCAGGGCAUCUCUGAGAGAAAUGCC [U12G A22G U29C] | 1.7
UACGUAGGUGGGUUUCCCCUGGUAGUGCUAAGGGGGCCUGGAAGUUAGGACUGGGCAGAGCUCAACACAGCGUGGCAAGGUGGCUGUGGCUAGACUGCCACUCUGGAUUCCUCGUCACUCAGCUGGGCAUCUCUGAGAGAAAUGCC [U12G A22G U47A A79G U100A A124U] | 0.56
UACGUAGGUGGGUUUCCCCUGGUAGUGCUAAGGGGGCCUGGAAGUUUGGACUGGGCAGAGCUCAACACAGCGUGGCAAAGUGGCUGUGGCUAGACUGCCUCUCAGGAUUCCUCGUCACUCAGCGGGGCAUCCCUGAGAGAAAUGCC [U12G A22G U104A A124G U132C] | 0.59
UACGUAGGUGGGUUUCCCCUGAUGGUGCUAAGGGGGCCUGGAAGUUUGGACUGGGCAGAGCUCAACUCAGCGUGGCAAAGUGGCUGUGGCUAGACUGCCUCUCUGGAUUCCUCGUCACUCAGCAGGGCACCUCUGAGAGAAAUGCC [U12G A24G A67U U130C] | 0.46
UACGUAGGUGGGUUUCCCCUGAUGGUGCUAAGGGGGCCUGGAAGUUUGGACUGAGCAGAGCUCAACACAGCGUGGCAAAGUGGCUGUGGCUAGACUGCCUCUCUGGAUUCCUCGUCACUCAGCAGGGCAUCUCUGAGAGAAGUGCC [U12G A24G G54A A142G] | 0.87
UACGUAGGUGGGUUUCCCCUGAUUGUGCUAAGGGGGCCUGGAAGUUAGGACUGGGCAGAGCUCAACACAGCGUGGCAAAGUGGCUGUGGCUAGACUGCCUCUCUGGAUUCCUCGUCACUCAGCAGGGCAUCUCUGAGAGAAAUGCC [U12G A24U U47A] | 1.09
UACGUAGGUGGGUUUCCCCUGAUAGUGCUGAGGGGGCCUGGAAGUUUGGACUGGGCAGAGCUCAACACAGCGUGGCAAAGUGGCUGUGGCUAGACUGCCUCUCUGGAUUCCUCGUCACUCUGCAGGGCAUCUCUGAGAGAAAUGCC [U12G A30G A121U] | 0.27
UACGUAGGUGGGUUUCCCCUGAUAGUGCUGAGGGGGCCUGGAAGUUUGGACUGGGCAGAGCUCAACACAGCGUGGCAAAGUGGCUGUGGCUAGACUGCCCCUCUGGAUUCCUCGUCACUCAGCAGGGCAUCUCUGAGAGAAAUGCC [U12G A30G U100C] | 1.72
UACGUAGGUGGGUUUCCCCUGAUAGUGCUAAGGGGGCCUGGGAGUUUGGACUGGGCAGAGCUCAACACAGCGUGGCAAAGUGGCUGUGGCUAGGCUGCCUCUCUGGAUUCCUCGUCACUCAGCAGGGCAUCUCUGAGAGAAAUGCC [U12G A42G A94G] | 0
UACGUAGGUGGGUUUCCCCUGAUAGUGCUAAGGGGGCCUGGGAGUUUGGACUGGGCAGAGCUCAACACAGCGUGGCAAAGUGGCUGUGGCUAGACUGCCUCUCUGGAUUCCUCGUCACUCAGCAGGGCAUCUCUGAGAGAGAUGCC [U12G A42G A141G] | 0.66
UACGUAGGUGGGUUUCCCCUGAUAGUGCUAAGGGGGCCUGGGAGUUUGGACUGGGCAGAGCUCAACACAGCGUGGCAAAGUGGCUGUGGCUAGACUGCCUCUCUGGAUUCCUCGUCACUCAGCAGGGCAUCUCUGAGAGAAGUGCC [U12G A42G A142G] | 0.59
UACGUAGGUGGGUUUCCCCUGAUAGUGCUAAGGGGGCCUGGGAGUUUGGACCGGGCAGUGCUCGACACAGCGUGGCAAAGUGGCUGUGGCUAGACUGCCUCUCUGGAUUCCACGUCACUCAGCAGGGCAUCUCUGAGAGAAAUGCC [U12G A42G U52C A59U A64G U112A] | 0
UACGUAGGUGGGUUUCCCCUGAUAGUGCUAAGGGGGCCUGGGAGUUUGGACUGGGCAGAGCUCAACACAGCGUGGCAAAGUGGCUGUGGCUAGACUGCCUCUCUGGAUUCCUCGUCACUCAGCAGGGCAUCUCAGAGAGAAAUGCC [U12G A42G U134A] | 1.24
UACGUAGGUGGGUUUCCCCUGAUAGUGCUAAGGGGGCCUGGUAGUUUGGACUGGGCAGAGCUCAACACAGCGUGGCAACGUGGCUGUGGCUAGACUGCCUCUCUGGAUUCCACGUCACUCAGCAGGGCAUCUCUGAGAGAAAUGCC [U12G A42U A79C U112A] | 0.89
UACGUAGGUGGGUUUCCCCUGAUAGUGCUAAGGGGGCCUGGUAGUUUGGACUGGGCAGAGCUCAACACAGCGUGGCAAAGUGGCUGUGGCUAGACUGCCUCUCUGGAUUCCUCGUCACUCAGCAGGGCAUCUCUGAGAGGAAUGCC [U12G A42U A140G] | 1.27
UACGUAGGUGGGUUUCCCCUGAUAGUGCUAAGGGGGCCUGGAGGUUUGGACUGGGCAGAGCUCAACACGGCCCGGCAAAGUGGCUGUGGCUAGACUGCCUCUCUGGAUUCCUCGUCACUCAGCAGGGCAUCUCUGAGAGAAAUGCC [U12G A43G A69G G72C U73C] | 2.63
UACGUAGGUGGGUUUCCCCUGAUAGUGCUAAGGGGGCCUGGAGGUUUGGACUGGGCAGAGCUCAACACAGCGUGGCAAAGUGGCUGUGGCUAGACUGCCUCUCUGGAUUCCUCGUCUCUCAGCAGGGCAUCUCUGAGAGAAAUGCC [U12G A43G A117U] | 1.03
UACGUAGGUGGGUUUCCCCUGAUAGUGCUAAGGGGGCCUGGAGGUUUGGACUGGGCAGAGCUCAACACAGCGUGGCAAAGUGGCUGUGGCUAGACUGCCUCUCUGGAUUCCUCGUCACUCAGCAGGGCAUCUCCGAGAGGAAUGCC [U12G A43G U134C A140G] | 0.95
